# The supplement of paper PMC3694890
# ± gives the uncertainty stated by the source. The list shows a part of the results. A small y stands for phosphotyrosine.
# B1: CRKL_127/A1 (peptide)
# chain: yVRTLY
# B2: CK22_240/A1 (peptide)
# chain: yDQLVR
# B3: TEC_206/A1 (peptide)
# chain: yYLILE
# B4: CBL_700/A1 (peptide)
# chain: yMTPSS
# B5: CBL_674/A1 (peptide)
# chain: ySLAAR
# B6: ABL1_264/A1 (peptide)
# chain: ySLTVA
# B7: CBL_371/A1 (peptide)
# chain: yCEMGS
# B8: CASP9_153 /A1 (peptide)
# chain: yILSME
# B9: CK22_256/A1 (peptide)
# chain: yGYLKK
# B10: BTK_375/A1 (peptide)
# chain: yPVSQQ
# B11: ABL1_253/A1 (peptide)
# chain: yGEVYE
# B12: CRKL_132/A1 (peptide)
# chain: yDFPGN
# B13: CBLB_889/A1 (peptide)
# chain: yDQLPS
# B14: CBL_455/A1 (peptide)
# chain: yDDDDD
# B15: ABL1_257/A1 (peptide)
# chain: yEGVWK
# B16: CBLB_665/A1 (peptide)
# chain: yDVPPR
# B17: BTK_551/A1 (peptide)
# chain: yTSSVG
# B18: CAC1F_1780/A1 (peptide)
# chain: yMDGHL
# B19: BSN_2067/A1 (peptide)
# chain: ySDHRY
# B20: BSN_3421/A1 (peptide)
# chain: yYGMSS
# B21: CRKL_198/A1 (peptide)
# chain: yGIPEP
# B22: CBLB_709/A1 (peptide)
# chain: yKIPSS
# B23: BTK_40/A1 (peptide)
# chain: yEYDFE
# B24: CBL_774/A1 (peptide)
# chain: yDVPKP
# B25: BSN_3422/A1 (peptide)
# chain: yGMSSR
# B26: CO3A1_1378/A1 (peptide)
# chain: yMDQAS
# B27: CBL_141/A1 (peptide)
# chain: yEENSQ
# B28: CBL_731/A1 (peptide)
# chain: yEAMYN
# B29: BTK_344/A1 (peptide)
# chain: yYLAEK
# B30: BTK_361/A1 (peptide)
# chain: yHQHNS
# B31: BTK_223/A1 (peptide)
# chain: yDYMPM
# Target: GRB2 (endogenous complexes from cell lysate), P62993
# Experiment: GRB2 complex binding differential signal (pY peptide minus Ala control peptide) (fluorescence intensity units); higher = stronger GRB2 complex binding
# 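Note: phosphopeptide probes on the chip at 1–4 µM, lysate proteins bound in 20 mM Tris pH 7.0 buffer with 140 mM NaCl, 1% Triton X-100 and 5% glycerol.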
Binder,GRB2 complex binding differential signal (MCF7),GRB2 complex binding differential signal (MCF10A),GRB2 complex binding differential signal (MDA-MB-231),GRB2 complex binding differential signal (T47D)
B1,542 ± 370,520 ± 280,632 ± 290,555 ± 1000
B2,1960 ± 650,1450 ± 280,472 ± 340,347 ± 1100
B3,–,-81.2 ± 410,529 ± 300,–
B4,16400 ± 6200,13000 ± 2700,3170 ± 700,5800 ± 2200
B5,2270 ± 640,896 ± 200,801 ± 260,1130 ± 1200
B6,1280 ± 420,1300 ± 670,966 ± 350,1430 ± 1200
B7,287 ± 220,20.9 ± 150,133 ± 320,336 ± 1200
B8,-1590 ± 3100,11 ± 620,869 ± 360,358 ± 1100
B9,148 ± 300,124 ± 550,536 ± 350,275 ± 1300
B10,328 ± 510,837 ± 330,443 ± 370,420 ± 970
B11,46.6 ± 280,-44.5 ± 420,196 ± 290,14.6 ± 850
B12,918 ± 640,663 ± 280,797 ± 380,546 ± 1200
B13,1320 ± 490,1090 ± 430,753 ± 410,1400 ± 1200
B14,169 ± 220,-120 ± 230,245 ± 240,-4.66 ± 1000
B15,523 ± 250,503 ± 210,1450 ± 350,3610 ± 1200
B16,4610 ± 800,2730 ± 530,923 ± 430,681 ± 2000

Binder,GRB2 complex binding differential signal (MCF7),GRB2 complex binding differential signal (MCF10A),GRB2 complex binding differential signal (MDA-MB-231),GRB2 complex binding differential signal (T47D)
B17,1300 ± 980,1900 ± 410,1100 ± 390,1330 ± 1800
B18,656 ± 470,358 ± 260,271 ± 230,410 ± 1100
B19,703 ± 350,467 ± 340,314 ± 260,1470 ± 1500
B20,158 ± 280,80.9 ± 240,926 ± 460,2320 ± 1100
B21,1770 ± 900,1460 ± 330,1810 ± 570,327 ± 1300
B22,15200 ± 2700,6970 ± 710,1850 ± 1400,3380 ± 1600
B23,-89.6 ± 400,57.1 ± 410,0.592 ± 190,159 ± 1200
B24,5280 ± 620,3110 ± 780,1360 ± 440,512 ± 1300
B25,1760 ± 370,561 ± 340,435 ± 290,619 ± 1500
B26,1130 ± 780,786 ± 200,1130 ± 530,620 ± 1300
B27,516 ± 150,981 ± 480,590 ± 350,164 ± 1600
B28,1190 ± 310,696 ± 500,1450 ± 650,1380 ± 2200
B29,239 ± 470,63.1 ± 370,360 ± 550,1010 ± 1300
B30,1220 ± 360,57.7 ± 460,653 ± 320,835 ± 1000
B31,-518 ± 970,59.9 ± 250,429 ± 300,338 ± 1000
